# Results: PubChem BioAssay (Tox21)
# “And” between values parts separate entries of the source, which are not always exact repeats. Equal values may be shown once. Inconclusive means that the source gave no clear call. Such entries were picked first, then a sample of the others. Where a call stands in place of a potency, no number is given. For part of these data: A potency beside an inconclusive call is a rough fit, not a confirmed value. The source made the active and inactive calls. Unless noted, calls come from the whole dose curve; as a rule, active = well fitted curve in the direction sought with a large enough effect in the repeat runs; inconclusive = weak or mixed curves; inactive = no such curve, though single readings can be large; an effect the other way counts as inactive or inconclusive.
# Experiments:
# [1] = qHTS assay to identify aromatase inhibitors - cell viability counter screen (AID 743084); conditions: MCF-7 aro ERE viability, CellTiter-Fluor, 24 h; activity change, negative = cytotoxicity: at 70.3 µM (top of the series);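 note: cells stimulated with testosterone during compound exposure; nearly all actives have a fitted effect of over 55% in size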
# [2] = biological target: Peroxisome proliferator-activated receptor gamma (Homo sapiens) (UniProt P37231); assay: qHTS assay to identify small molecule antagonists of the peroxisome proliferator-activated receptor gamma (PPARg) signaling pathway (AID 743191; calls by dose curve; note: nearly all actives have a fitted effect of over 30% in size; note: potency is the fitted concentration of half-maximal effect); conditions: HEK293H PPARg-UAS-bla, beta-lactamase ratio, antagonist, 17 h; ratio activity, negative = inhibition: at 62.6 µM (top of the series) unless noted
# Summary of the method: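 Beta-lactamase reporter under UAS control in HEK293H PPARg-bla cells; compound treatment 17 h at 37C. Read-out: fluorescence intensity after 1 h room-temperature incubation with LiveBLAzer B/G FRET substrate.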
# [3] = qHTS assay to identify small molecule that activate the aryl hydrocarbon receptor (AhR) signaling pathway - cell viability counter screen (AID 743086);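 note: HepG2 liver cells carrying the AhR DRE luciferase reporter; nearly all actives have a fitted effect of over 45% in size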
# Summary of the method: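 Cytotoxicity counter screen: CellTiter-Fluor signal (30 min, 37 C) in 4000 HepG2 cells/well carrying the DRE-luciferase reporter, following 24 h compound exposure at 37 C.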
# [4] = qHTS assay to identify small molecule antagonists of the peroxisome proliferator-activated receptor gamma (PPARg) signaling pathway - cell viability counter screen (AID 743194); conditions: PPARg-bla HEK293H viability, CellTiter-Glo luminescence, 17 h, co-treated with 50 nM rosiglitazone; activity change, negative = cytotoxicity: at 62.6 µM (top of the series) unless noted; note: nearly all actives have a fitted effect of over 55% in size
# Summary of the method: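 Viability was measured as CellTiter-Glo luminescence in GeneBLAzer PPARg UAS-bla HEK293H cells. These cells had been exposed 17 h at 37 C to compounds together with rosiglitazone at 50 nM final, with the beta-lactamase readout taken in the same wells.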
# [5] = biological target: Aryl hydrocarbon receptor (Homo sapiens) (UniProt P35869); assay: qHTS assay to identify small molecule that activate the aryl hydrocarbon receptor (AhR) signaling pathway (AID 743085); note: nearly all actives have a fitted effect of over 15% in size; note: potency is the fitted concentration of half-maximal effect;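 for activation: HG2L7.5c1 human HepG2 liver cells with stably integrated DRE-driven firefly reporter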
# Summary of the method: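 Steps: seed HepG2-AhR-luc cells; allow 5 h at 37C; pin-transfer test compound or vehicle; incubate 24 h at 37C; add viability dye (30 min, 37C) and read fluorescence; add luciferase substrate (30 min, RT) and read luminescence.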
# [6] = biological target: Peroxisome proliferator-activated receptor gamma (Homo sapiens) (UniProt P37231); assay: qHTS assay to identify small molecule agonists of the peroxisome proliferator-activated receptor gamma (PPARg) signaling pathway (AID 743094; active = well fitted activation curve with a large enough effect in the signal ratio in the repeat runs, not every such curve was filed as active; inconclusive = weak or mixed curves, or effect the other way; inactive = no such curve, though single readings can be large or run the other way; the % refers to the signal ratio); conditions: HEK293H PPARg-UAS-bla, beta-lactamase FRET ratio, 17 h; activation: at 57 µM (top of the series) unless noted
# Summary of the method: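 Cells from the PPARg UAS-bla HEK293H line are plated and incubated 5 h at 37C. Compounds in DMSO are pinned in and left 17 h at 37C. LiveBLAzer B/G substrate is then added for 1 h at room temperature before fluorescence is measured.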
# Tags give direction and shape of the fitted curve or compound fluorescence and quenching.
# Chain of UniProt P37231 (P37231 whole entry, looked up): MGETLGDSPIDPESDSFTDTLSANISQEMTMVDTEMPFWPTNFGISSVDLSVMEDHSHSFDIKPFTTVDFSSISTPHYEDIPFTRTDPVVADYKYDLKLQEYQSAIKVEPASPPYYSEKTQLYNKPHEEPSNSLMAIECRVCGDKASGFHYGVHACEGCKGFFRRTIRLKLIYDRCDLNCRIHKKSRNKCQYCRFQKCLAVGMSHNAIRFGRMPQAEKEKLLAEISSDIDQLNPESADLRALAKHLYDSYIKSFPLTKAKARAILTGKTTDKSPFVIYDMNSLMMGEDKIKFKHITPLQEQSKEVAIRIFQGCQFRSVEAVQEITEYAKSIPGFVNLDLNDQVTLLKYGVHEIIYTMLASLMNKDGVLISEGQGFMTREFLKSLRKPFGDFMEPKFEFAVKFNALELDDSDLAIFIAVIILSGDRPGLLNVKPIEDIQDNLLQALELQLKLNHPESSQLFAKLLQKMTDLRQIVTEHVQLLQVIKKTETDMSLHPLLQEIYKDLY
# Chain of UniProt P35869 (P35869 whole entry, looked up): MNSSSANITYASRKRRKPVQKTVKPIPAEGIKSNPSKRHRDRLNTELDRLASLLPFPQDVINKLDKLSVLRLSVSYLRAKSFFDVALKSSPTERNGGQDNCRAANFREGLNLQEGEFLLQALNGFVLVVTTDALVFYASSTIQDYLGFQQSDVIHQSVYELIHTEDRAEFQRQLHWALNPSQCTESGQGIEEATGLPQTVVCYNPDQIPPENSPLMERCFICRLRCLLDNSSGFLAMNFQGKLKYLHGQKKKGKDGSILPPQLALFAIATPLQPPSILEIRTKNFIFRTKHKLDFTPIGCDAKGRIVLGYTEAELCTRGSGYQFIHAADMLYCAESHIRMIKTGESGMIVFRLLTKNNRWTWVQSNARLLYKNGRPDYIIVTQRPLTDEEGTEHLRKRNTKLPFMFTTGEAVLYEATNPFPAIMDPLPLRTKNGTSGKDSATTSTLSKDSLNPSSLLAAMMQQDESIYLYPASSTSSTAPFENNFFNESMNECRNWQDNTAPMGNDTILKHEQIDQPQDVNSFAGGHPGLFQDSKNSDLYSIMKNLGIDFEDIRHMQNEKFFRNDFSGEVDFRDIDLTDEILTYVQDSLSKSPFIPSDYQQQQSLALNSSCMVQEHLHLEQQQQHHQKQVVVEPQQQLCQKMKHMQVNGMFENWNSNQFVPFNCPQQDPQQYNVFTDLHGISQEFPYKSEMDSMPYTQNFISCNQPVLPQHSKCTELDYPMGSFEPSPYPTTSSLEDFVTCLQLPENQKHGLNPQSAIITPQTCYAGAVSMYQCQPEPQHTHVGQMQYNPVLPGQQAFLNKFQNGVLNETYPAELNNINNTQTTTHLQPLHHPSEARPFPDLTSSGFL
structure (smiles),measurement,setting,value
COC(=O)c1ccccc1C(=O)c1ccc(OCCN2CCCCC2)cc1,Potency,[1],inactive
same,"ratio activity, negative = inhibition",[2],inconclusive: 16.1%
NCCN1CCOCC1,Potency,[1],inactive
same,Potency,[3],inactive
CC(=O)O[C@H]1C[C@@H]2CC[C@@H]3[C@H](CC[C@@]4(C)[C@H]3C[C@H]([N+]3(C)CCCCC3)[C@@H]4OC(C)=O)[C@@]2(C)C[C@@H]1N1CCCCC1,Potency,[1],inactive
same,Potency,[4],inactive
CCCSc1ccc2nc(NC(=O)OC)[nH]c2c1,Potency,[5],active: 4.52 µM and active: 34.4 µM
CC(=O)c1ccc2c(c1)N(CCCN(C)C)c1ccccc1S2,Potency,[1],inactive
same,Potency,[2],inactive
CC(C)CC(=O)C1C(=O)c2ccccc2C1=O,Potency,[5],"inconclusive: 61.1 µM [activator, single point]"
same,activation,[6],inconclusive: -16.4%
same,Potency,[2],"inconclusive: 43.6 µM [inhibitor, partial curve]"
C=Cc1ccc(C)cc1,Potency,[5],inactive
OCCCO,Potency,[5],inactive
same,Potency,[6],inactive
same,Potency,[2],inactive
CCN1CCCC1CNC(=O)c1cc(S(N)(=O)=O)ccc1OC (centres undefined),Potency,[5],"inconclusive: 77 µM [activator, partial curve, poor fit]"
same,Potency,[6],inactive
same,Potency,[2],inactive
Oc1ccc(O)c2c(O)cccc12,Potency,[5],active: 12.1 µM
CCOC(=O)C(C)Oc1ccc(Oc2nc3ccc(Cl)cc3o2)cc1 (centres undefined),Potency,[5],"inconclusive: 54.5 µM [activator, partial curve, poor fit]"
same,Potency,[2],"inconclusive: 54.9 µM [inhibitor, single point]"
CC(C)(C)NCCO,Potency,[5],"inconclusive: 77 µM [activator, partial curve, poor fit]"
same,Potency,[2],inactive
